# Laboratory results as given in the BET-seq Pho4 binding data (Le et al. 2018).
# Some of the results follow. The energies were worked out here from pooled read counts, against the library average; single values are noisy.
# Target: T1, Pho4 (S. cerevisiae) (UniProt P07270)
# T1 sequence: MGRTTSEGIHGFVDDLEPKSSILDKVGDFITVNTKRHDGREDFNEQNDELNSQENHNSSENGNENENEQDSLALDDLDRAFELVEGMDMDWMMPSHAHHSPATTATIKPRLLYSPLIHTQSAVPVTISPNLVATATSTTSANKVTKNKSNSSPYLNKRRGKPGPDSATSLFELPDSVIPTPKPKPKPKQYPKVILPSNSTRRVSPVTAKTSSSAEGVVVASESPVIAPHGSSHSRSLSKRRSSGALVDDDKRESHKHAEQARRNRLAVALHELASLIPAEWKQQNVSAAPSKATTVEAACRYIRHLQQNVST
# Test: relative binding free energy (BET-seq); higher = weaker binding
# Conditions: reference: library average
row,Sequence,relative binding free energy [kcal/mol]
1,TCTCACACGTGTTGGT,0.1
2,TGCTTCACGTGAGCTG,0.42
3,TAGGTCACGTGGGGTA,-0.1
4,GCAGTCACGTGCTGGG,0
5,AAAGGCACGTGGTCTG,-0.2
6,GACTTCACGTGGTGGA,0.45
7,TGTTACACGTGAAGCT,0.33
8,GTAGTCACGTGTGGAC,0.34
9,TGGAGCACGTGTTGAC,0.07
10,TTATTCACGTGTATAG,0.24
11,GACGGCACGTGTGGAT,0.1
12,TGTTGCACGTGTATTC,0.09
13,GGTGTCACGTGGATTA,0.28
14,TAATGCACGTGTTTGG,-0.08
15,GAGGACACGTGGGTCT,-0.04
16,GTCTGCACGTGCGGGA,-0.1
17,GCAGTCACGTGGCGGG,-0.01
18,AAGGGCACGTGCGGGG,-0.18
19,GTATGCACGTGGCGTT,0.01
20,CTGAGCACGTGAGCGG,0.21
21,CTTATCACGTGATGCG,0.32
22,GTGGACACGTGGCTGG,-0.1
23,TGAGGCACGTGAGCTT,0.21
24,AGTATCACGTGTGTAG,0.01
25,TGAAACACGTGATTTA,0.19
26,ATGGCCACGTGTTTAT,-0.09

row,Sequence,relative binding free energy [kcal/mol]
1,TATGTCACGTGTGTGC,0
2,AGGAGCACGTGGAGTG,-0.21
3,TTTGTCACGTGATTCT,0.29
4,TGCTGCACGTGTTTCG,0.02
5,TATGTCACGTGGTAAA,0.08
6,GGGGCCACGTGGGACT,-0.06
7,TGAATCACGTGGTGTA,0.19
8,TTGCGCACGTGAGATT,0.26
9,ATTATCACGTGTGGGG,0.15
10,TTTTTCACGTGGCGGG,0.2
11,TTGTGCACGTGGCTTG,-0.11
12,GGAGTCACGTGGATTA,-0.03
13,TGTTTCACGTGAAGTG,0.42
14,GTATGCACGTGTTTAT,-0.02
15,TAAACCACGTGTGTTG,0.04
16,TGATGCACGTGTCAGT,0.04
17,GATCGCACGTGGATGG,-0.02
18,AGATGCACGTGGCTGG,-0.07
19,GTTAGCACGTGGCTGT,-0.06
20,TTAGGCACGTGTGATC,-0.08
21,GGTTTCACGTGATTGG,0.38
22,TTAGGCACGTGTAGAA,0.06
23,TGTAACACGTGAGGTG,0.17
24,AGCCGCACGTGAGGTG,0.19
25,GCGGTCACGTGTTGAT,0.24
26,ATGAGCACGTGGTGTT,-0.02

row,Sequence,relative binding free energy [kcal/mol]
1,TCGGGCACGTGGATGG,0.02
2,TTCGACACGTGGGTTC,0.13
3,AGTACCACGTGGTGTG,-0.13
4,TGAGGCACGTGTTGTC,-0.08
5,TAGCGCACGTGGCTGT,-0.1
6,CAGGACACGTGTGGGT,0.05
7,GTATTCACGTGTGAGT,0.29
8,GGCGCCACGTGAGGGT,0.05
9,TGCACCACGTGTTGGT,-0.04
10,TATTGCACGTGTAAGG,0.04
11,TCTTTCACGTGTATAG,0.22
12,GTGTACACGTGGAAGT,0.04
13,TTTTACACGTGAACGG,0.34
14,GGTACCACGTGCGGGT,-0.16
15,AGGTTCACGTGTTGTC,0.21
16,TCTTCCACGTGTGTGG,0.04
17,GTTGTCACGTGAGTGT,0.33
18,ATCATCACGTGAAGGT,0.33
19,GGCGTCACGTGACGTG,0.17
20,GAGGACACGTGGGTTA,-0.05
21,GGAAACACGTGTAGTG,-0.02
22,TTAGGCACGTGTAGCT,0.02
23,TATGGCACGTGTGTGT,-0.08
24,TAAGTCACGTGGCTAG,0.01
25,TGTAGCACGTGTTATG,0.01
26,GCGTGCACGTGGTGCT,-0.17

row,Sequence,relative binding free energy [kcal/mol]
1,GTTATCACGTGTAGCT,0.21
2,TTGAGCACGTGTGAAG,0.07
3,AATTTCACGTGGAGTA,0.17
4,GATCGCACGTGTGGTG,0.11
5,CTTTACACGTGGGCTG,0.02
6,TCGGGCACGTGGGAGA,-0.23
7,ATTGTCACGTGAATCT,0.24
8,CTGTCCACGTGTGTGT,0.04
9,TACGTCACGTGGTAAG,0.01
10,CCTGTCACGTGTGGGT,0.06
11,TTTGTCACGTGCTTGT,0.13
12,AAGGACACGTGTTTAA,0.13
13,TTGAACACGTGGCTTG,0.01
14,CTGATCACGTGGAGTT,0.15
15,GCGTACACGTGGTGTT,-0.05
16,TTGATCACGTGTTATA,0.07
17,TGAAGCACGTGGGAGG,-0.11
18,CGGAACACGTGGCGGG,-0.17
19,GTTCGCACGTGGTAAG,-0.01
20,AAGTACACGTGTTGAT,-0.03
21,TAGGTCACGTGAGTAT,0.34
22,CAAGACACGTGGTTTG,0.1
23,TTTAGCACGTGTGATG,0.1
24,CTGATCACGTGGTAGG,-0.04
25,GATGACACGTGTAGTT,0.15
26,GTTGGCACGTGATGAA,0.04

row,Sequence,relative binding free energy [kcal/mol]
1,CATGACACGTGTGGTA,0.07
2,GGGCACACGTGGGTAA,-0.14
3,TTTATCACGTGATTAA,0.21
4,GATTACACGTGAAGTG,0.29
5,GTAAACACGTGTGGTC,0.16
6,AGGTGCACGTGGTTAG,-0.06
7,TATAGCACGTGACGGG,0.17
8,GCGTTCACGTGGTGTC,0.33
9,GCTTTCACGTGGGTTG,0.14
10,GGTGCCACGTGTGGGG,-0.06
11,GGGGGCACGTGGACGT,-0.14
12,AAGGGCACGTGGAGAA,-0.1
13,AATAGCACGTGACGGG,-0.03
14,CGTGGCACGTGTGGTA,-0.04
15,TTGGTCACGTGATTCT,0.3
16,AAGTTCACGTGGCTGT,0.22
17,TTGTTCACGTGGATAC,0.34
18,ACATGCACGTGGGCTG,-0.15
19,TTTAACACGTGGAAAA,0.23
20,ATATTCACGTGTTGCA,0.15
21,TAGAACACGTGTTTAT,0.07
22,AGGGTCACGTGCGACG,0.13
23,GGAGGCACGTGGGCGC,-0.29
24,TGATGCACGTGTTGTA,-0.01
25,TTTGACACGTGGTATG,-0.02
26,TGGGTCACGTGGAGTT,0.23

row,Sequence,relative binding free energy [kcal/mol]
1,CTATGCACGTGGTGTT,-0.15
2,TTGGGCACGTGGCGTG,-0.29
3,ATTCTCACGTGCGTGT,0.14
4,AGAGACACGTGGGTGA,-0.19
5,TATTACACGTGGAGGC,0.19
6,ATGATCACGTGGTTGC,0.06
7,TTGTTCACGTGGCCGG,0.14
8,GAAGGCACGTGGAGTT,-0.18
9,GGTAGCACGTGTGCTA,-0.05
10,GTCATCACGTGTGGGG,0.29
11,GTTTACACGTGGGGTC,0.05
12,ATATGCACGTGGCGGC,-0.1
13,TGGTGCACGTGGCAGC,-0.08
14,TTGATCACGTGGTCAT,-0.04
15,AGTAGCACGTGTTTCG,-0.09
16,GAGTGCACGTGGCGTT,-0.05
17,CGGTGCACGTGCGTTG,-0.08
18,TTTTACACGTGGCGAT,-0.12
19,GATTGCACGTGTTTTT,0.11
20,GTCTGCACGTGAGTGA,0.22
21,TTTCACACGTGCGTTT,0.05
22,AAGTGCACGTGTGTTT,-0.07
23,TTTTTCACGTGGTGCC,0.32
24,ACGGGCACGTGGTTTA,-0.19
25,TAAGTCACGTGTTTAA,0.2
26,GATGGCACGTGTGTCA,-0.05

row,Sequence,relative binding free energy [kcal/mol]
1,TGTGTCACGTGGGTTT,0.04
2,TAAAGCACGTGGTTCG,-0.11
3,AGTGGCACGTGATGAG,0.17
4,TGCGTCACGTGGGGGT,-0.04
5,GGTTTCACGTGGACTT,0.27
6,ATAGTCACGTGGCAGT,0.09
7,TGTTTCACGTGTTATT,0.27
8,CTTTTCACGTGATCGG,0.38
9,AGCAGCACGTGTGGCG,-0.06
10,TAGATCACGTGTTGAG,0.19
11,GGGAGCACGTGGCGTA,-0.16
12,TTAATCACGTGACGGT,0.16
13,TAGCACACGTGGGTTT,0.12
14,GAGTGCACGTGAACGG,0.32
15,CATGGCACGTGGATAT,-0.03
16,GTTTACACGTGTGTGA,0.23
17,TGTGGCACGTGATAGA,0.02
18,CTTGGCACGTGTAGAA,0.15
19,GAGGGCACGTGAGAGA,0.34
20,GCGGGCACGTGTTGCT,-0.01
21,ATGGTCACGTGTCTAT,0.01
22,TTTTTCACGTGAGCTA,0.24
23,GTTTACACGTGGTCGT,0.1
24,AGGTACACGTGGGCCG,-0.09
25,AGTGACACGTGAGTTT,0.24
26,GATAGCACGTGGTGAG,-0.01

row,Sequence,relative binding free energy [kcal/mol]
1,GGCTCCACGTGGTAGT,0.18
2,TATGTCACGTGATTAA,0.32
3,CGGGGCACGTGTGAGA,-0.01
4,TGGGGCACGTGATGTG,0.04
5,TTGTACACGTGGGATG,0.02
6,TGCTGCACGTGGTACG,-0.09
7,GGTTTCACGTGCGGTT,0.31
8,GTTAGCACGTGACTGT,0.07
9,AGGCCCACGTGTGGTT,-0.02
10,TGGCACACGTGTTAGT,0.15
11,GTGAGCACGTGGCGGG,-0.17
12,CTTGACACGTGGCGGG,-0.13
13,TTACTCACGTGATGGG,0.4
14,GTGTGCACGTGTGCGG,0.01
15,CGTGTCACGTGGGCAA,-0.05
16,ATGTTCACGTGGAATC,0.24
17,TTGGACACGTGTTGGA,0.17
18,GTGTTCACGTGTTTAA,0.13
19,TTCGGCACGTGGTACG,-0.3
20,AGTTTCACGTGTTTCT,0.22
21,TTGTGCACGTGCCGAT,-0.02
22,GTGGTCACGTGGGTCT,0.01
23,TGGCTCACGTGGCATT,0.2
24,CTCAACACGTGGGGGG,-0.06
25,CTTCTCACGTGTGGGG,0.12
26,GTTTGCACGTGAATAG,0.37

row,Sequence,relative binding free energy [kcal/mol]
1,TGCTGCACGTGGAATT,0.08
2,AAACTCACGTGTTAGG,0.22
3,GCGTACACGTGGTGTA,-0.05
4,ATAGTCACGTGTTTAC,0.14
5,TTTACCACGTGCTTGG,0.07
6,TGGGGCACGTGTATAT,-0.1
7,ATGCTCACGTGGGGTT,-0.05
8,TAAGGCACGTGTTATA,-0.23
9,TAGTACACGTGTAGGA,0.24
10,GTTGACACGTGGGCCG,-0.1
11,TGTCTCACGTGCGGGA,0.11
12,CCATGCACGTGGTTGT,-0.05
13,AGAGTCACGTGGATTT,0.06
14,TCTGGCACGTGAAATG,0.14
15,TATCTCACGTGTTGGT,0.12
16,GGTATCACGTGATTTG,0.31
17,GGGCTCACGTGGGTGG,0.1
18,GGCTTCACGTGTGATG,0.41
19,TTAATCACGTGGGGTC,0.01
20,TTTGTCACGTGGGGGC,0.09
21,TGGAGCACGTGCCGGT,-0.3
22,TAGTTCACGTGTCGGA,0.3
